Data taken from publication PMC4336329 (PLoS ONE, 2015).
The whole screen tested about 310,000 compounds, of which about 2,200 (0.71%) showed an effect of 50% or more. Effects have a minus sign here. This is one part of the list.

Target: human ether-à-go-go-related gene (hERG) potassium channel (human, UniProt Q12809)
Test: primary screen, population patch clamp on CHO cells stably expressing hERG

Sequence of human ether-à-go-go-related gene (hERG) potassium channel (Q12809 whole entry, looked up): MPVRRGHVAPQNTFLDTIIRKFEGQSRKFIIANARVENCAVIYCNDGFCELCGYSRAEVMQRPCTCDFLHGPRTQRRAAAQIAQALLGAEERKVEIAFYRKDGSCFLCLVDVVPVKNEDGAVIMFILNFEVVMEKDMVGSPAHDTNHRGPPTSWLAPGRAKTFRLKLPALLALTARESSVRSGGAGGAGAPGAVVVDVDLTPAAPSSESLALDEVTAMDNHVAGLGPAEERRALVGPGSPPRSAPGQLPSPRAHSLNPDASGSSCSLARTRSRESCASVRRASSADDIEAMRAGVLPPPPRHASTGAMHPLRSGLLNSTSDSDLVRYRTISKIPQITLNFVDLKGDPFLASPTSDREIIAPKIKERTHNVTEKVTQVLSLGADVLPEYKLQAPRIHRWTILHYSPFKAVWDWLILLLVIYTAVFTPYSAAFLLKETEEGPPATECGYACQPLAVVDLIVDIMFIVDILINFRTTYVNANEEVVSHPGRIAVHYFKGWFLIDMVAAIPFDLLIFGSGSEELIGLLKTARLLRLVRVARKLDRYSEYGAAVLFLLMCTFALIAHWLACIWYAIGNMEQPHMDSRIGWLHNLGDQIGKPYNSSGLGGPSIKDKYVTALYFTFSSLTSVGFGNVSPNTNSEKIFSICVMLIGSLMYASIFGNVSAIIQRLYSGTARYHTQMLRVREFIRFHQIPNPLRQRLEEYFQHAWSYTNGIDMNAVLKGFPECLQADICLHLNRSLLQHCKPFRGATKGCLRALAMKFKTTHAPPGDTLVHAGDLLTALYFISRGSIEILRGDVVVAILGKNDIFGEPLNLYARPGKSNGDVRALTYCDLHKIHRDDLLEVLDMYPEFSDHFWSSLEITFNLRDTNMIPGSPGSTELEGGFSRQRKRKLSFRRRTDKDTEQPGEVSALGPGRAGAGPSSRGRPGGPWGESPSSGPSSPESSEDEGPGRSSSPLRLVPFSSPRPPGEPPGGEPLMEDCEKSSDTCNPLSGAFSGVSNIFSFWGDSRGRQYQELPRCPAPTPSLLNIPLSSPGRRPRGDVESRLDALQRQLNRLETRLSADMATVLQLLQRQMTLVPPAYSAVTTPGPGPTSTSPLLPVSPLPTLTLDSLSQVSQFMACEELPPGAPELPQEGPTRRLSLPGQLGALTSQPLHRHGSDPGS

SMILES	hERG current change (%, negative = inhibition) at 1uM [%]
CCN(CC)CCN(Cc1cc2cc(C)ccc2[nH]c1=O)C(=S)Nc1ccccc1	-23.4
CCN(CC)CCN(C(=O)c1ccc2c(c1)OCCO2)c1nc2cc3c(cc2s1)OCO3.Cl	-18.3
CC(=O)OC1CC(C)(C)N(OC(=O)c2ccc(N)cc2)C(C)(C)C1	1.52
CCN(CC)C(=O)C(=O)c1cn(CC(=O)N2CCc3ccccc3C2)c2ccccc12	0.281
CC1Cc2cc(S(=O)(=O)N3CCC(C(=O)Nc4ccccn4)CC3)ccc2N1C(=O)C1CCC1 (stereo not shown)	11.7
COc1cc(-c2nc(-c3ccc4c(c3)-c3ccccc3S4(=O)=O)c(-c3ccccc3)[nH]2)cc(OC)c1OC	5.24
Cc1cccc(CSC2=NN3CCCC(=O)N=C3S2)c1	6.6
CCCS(=O)(=O)N1CCC(C(=O)c2cccc(C(F)(F)F)c2)CC1	-1.12
COc1ccc(C(C(=O)NC2CCCC2)N(CCCO)C(=O)Cn2nnc(-c3ccc(C)o3)n2)cc1 (stereo not shown)	15.2
Nc1nc2ccc(S(=O)(=O)N3CCCCC3)cc2s1	24.3
CC(=O)Nc1ccccc1-c1nc2ccccc2nc1OCC(=O)c1ccc2ccccc2c1	17.8
Cc1[nH]c(=O)[nH]c(=O)c1S(=O)(=O)N1CCCC(C(=O)NCCC2=CCCCC2)C1 (stereo not shown)	13.8
CC(C)(C)OC(=O)N/N=C/c1cccc([N+](=O)[O-])c1	11.1
Clc1cc(Br)ccc1OCCCNCc1ccccc1.O=C(O)C(=O)O	8.16
COc1cc(C)c(Cl)cc1S(=O)(=O)n1ccnc1	7.84
CCC(CC)C(=O)Nc1nnc(S(=O)(=O)N2CCc3ccccc32)s1	8.76
COc1cc(CC(=O)OCC(=O)N2CC(C)CC(C)C2)cc(OC)c1OC (stereo not shown)	23.9
Cc1ccc2c(c1)CC1(CN2C)C(=O)NC(=O)N(C(C)C)C1=O (stereo not shown)	19.3
CCN(CC)c1nc(Nc2ccccc2)nc(Oc2ccc(=O)[nH]n2)n1	-4.59
O=C(CN1C(=O)NC2(CCCCC2)C1=O)N1CCN(S(=O)(=O)c2ccc(F)cc2)CC1	13.1
O=C(NCCc1ccccc1)C1=CCN(S(=O)(=O)c2ccccc2)CC1	14.8
CCOC(=O)C1C2C=CC3(CN(c4cccc(Cl)c4)C(=O)C13)O2 (stereo not shown)	12.3

SMILES	hERG current change (%, negative = inhibition) at 1uM [%]
COc1ccc(CNC(=O)c2ccncc2)cc1	11.6
CCOc1ccc2c(c1)c(=O)c(S(=O)(=O)c1ccc(CC)cc1)cn2C	20.8
CCCCC(c1nnnn1CC1CCCO1)N1CCN(Cc2ccccc2)CC1.Cl (stereo not shown)	5.35
O=C(N=C1SC2CS(=O)(=O)CC2N1c1ccccc1)c1cccc([N+](=O)[O-])c1 (stereo not shown)	9.3
O=C(N/N=C/c1ccc(O)cc1)c1cc[n+](Cc2ccccc2)cc1.[Cl-]	7.47
Cc1ccc(NC(=O)CS(=O)c2ccccc2N)c(C)c1 (stereo not shown)	30.5
COc1ccccc1N1CCN(C(=O)c2ccc(-c3nc4ccccc4s3)o2)CC1	8.11
COc1ccccc1C(=O)N/C(=C\c1ccc(Br)cc1)C(=O)NCCC(=O)O	10.6
CCOc1ccc(C(=O)N/N=C/c2ccc(-c3ccc(S(=O)(=O)Nc4ncccn4)cc3)o2)cc1	19.7
Cc1ccc(NS(=O)(=O)c2ccc3c(c2)CCC(=O)N3)cc1C	11.2
COC(=O)c1ccccc1Sc1snnc1C	14.4
COc1ccc(OCc2cc(C(=O)NC3CCOC(C)(C)C3)no2)c2ccccc12 (stereo not shown)	14.7
O=C(COc1ccc(S(=O)(=O)N2CCOCC2)cc1)N1CCc2ccccc2C1	-23.7
COc1nc(-c2ccc(C)cc2)ccc1-c1noc(-c2cccnc2)n1	12
Cc1nn(C)c(C)c1S(=O)(=O)NCc1cccs1	9.59
CCOC(=O)c1c(C)oc2cc(Cl)c(O)c(CN(C)C)c12	8.79
COCCN(CCOC)S(=O)(=O)c1ccc(C(=O)NCCCN2CCOCC2)cc1	14.8
CCCCCOC(=O)C1=C(C)NC(=O)NC1c1ccc2c(c1)OCO2 (stereo not shown)	15.1
O=C(NCCNc1ccccc1[N+](=O)[O-])c1ccccc1F	10.4
Cc1cccc2sc(NC(=O)CN3C(=O)c4ccccc4C3=O)nc12	13.7
COc1cccc(NC(=S)NC2CC3CCCC(C2)N3CC(C)C)c1 (stereo not shown)	-8.61
